# Measurements from PubChem BioAssay AID488969 (Vanderbilt High Throughput Screening Facility, 2010).
# Whole data set: some 110,000 compounds, median “z-score” near -0.1, cut for the highest 2% near 2. Some of the results follow.
# Target: Metabotropic glutamate receptor 8 (Rattus norvegicus) (UniProt P70579)
# Assay: mGluR8 Gi/Go-coupled signaling modulation – cell-based, rat, thallium flux, HTS, primary screen (AID 488969)
# Conditions: HEK293 rat mGluR8, GIRK (G protein-gated inwardly rectifying potassium channel) thallium flux, FluoZin2; at 10 µM; stronger effect = higher value; submaximal glutamate (EC20) added with thallium
# UniProt P70579, sequence (P70579 whole entry, looked up): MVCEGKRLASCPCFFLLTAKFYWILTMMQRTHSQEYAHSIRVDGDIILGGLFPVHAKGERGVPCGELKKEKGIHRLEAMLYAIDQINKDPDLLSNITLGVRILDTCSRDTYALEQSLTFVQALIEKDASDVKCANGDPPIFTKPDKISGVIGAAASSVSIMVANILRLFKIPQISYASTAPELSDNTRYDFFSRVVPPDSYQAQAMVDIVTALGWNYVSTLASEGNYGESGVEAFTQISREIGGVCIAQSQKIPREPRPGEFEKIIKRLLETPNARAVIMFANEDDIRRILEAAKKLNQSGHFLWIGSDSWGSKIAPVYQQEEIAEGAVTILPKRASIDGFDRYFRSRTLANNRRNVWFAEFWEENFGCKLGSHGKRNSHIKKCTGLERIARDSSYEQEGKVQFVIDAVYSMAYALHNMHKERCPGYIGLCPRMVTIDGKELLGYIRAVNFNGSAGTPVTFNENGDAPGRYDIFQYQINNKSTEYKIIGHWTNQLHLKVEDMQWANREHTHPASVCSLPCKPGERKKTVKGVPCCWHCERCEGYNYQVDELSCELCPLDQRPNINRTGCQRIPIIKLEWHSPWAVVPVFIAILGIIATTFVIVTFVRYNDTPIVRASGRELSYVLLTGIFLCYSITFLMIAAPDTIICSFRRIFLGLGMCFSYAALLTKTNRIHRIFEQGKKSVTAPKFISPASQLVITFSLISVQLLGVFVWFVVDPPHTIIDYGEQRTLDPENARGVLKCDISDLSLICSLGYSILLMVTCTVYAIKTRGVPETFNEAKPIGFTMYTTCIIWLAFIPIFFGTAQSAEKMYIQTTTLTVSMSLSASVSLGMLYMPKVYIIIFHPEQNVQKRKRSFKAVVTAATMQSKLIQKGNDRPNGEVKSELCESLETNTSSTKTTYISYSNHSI
row,Structure (SMILES),z-score
1,CCCn1c(=O)n(C)c(=O)c2c(SCC(=O)NC34CC5CC(CC(C5)C3)C4)nc(CC(C)C)nc21,-0.263
2,COc1cc(OC)cc(C(=O)Nc2ccc([N+](=O)[O-])cn2)c1,-0.173
3,CCCCN(Cc1cc2cc(OC)ccc2[nH]c1=O)C(=O)COc1ccccc1,-0.254
4,CCOC(=O)N1CCN(C(=O)C2CCCN(Cc3nc(-c4ccc(Cl)cc4)oc3C)C2)CC1 (centres undefined),-0.063
5,Cc1sc2ncnc(Nc3ccc(N4CCOCC4)cc3)c2c1-c1ccccc1,-0.6
6,CC(C)(C)C(=O)NC(=S)Nc1ccccc1C(N)=O,-0.144
7,COc1cc2c(cc1NC(=O)c1cccc(Br)c1)CCCC2,0.201
8,Cc1ccc(NCc2nnc(SCCN3CCCCC3)n2CC2CCCO2)cc1Cl (centres undefined),-0.312
9,CCCOCCOC(=O)C1=C(C)NC(=O)NC1c1cc(Cl)c(O)c(OC)c1 (centres undefined),0.159
10,CSCCC1NC(=O)N(CC(=O)Nc2cccc3ccccc23)C1=O (centres undefined),0.0967
11,Cc1cccc(OCCCC(=O)Nc2nccs2)c1,-0.848
12,CNC(=S)NCc1ccc(Cl)cc1,0.0853
13,CCc1cccc(NC(=O)C2CCCN(S(=O)(=O)c3c(C)[nH]c(=O)[nH]c3=O)C2)c1 (centres undefined),-0.32
14,CC(=O)/C(=N\Nc1ccccc1)Sc1cccc2cccnc12,-0.115
15,O=C(COC(=O)c1cc2ccccc2oc1=O)c1cccc([N+](=O)[O-])c1,-0.0516
16,C/C=C(\CS(=O)(=O)c1ccccc1)S(=O)(=O)c1ccccc1,-0.484
17,CC(O)Cc1nsc(NC(=O)c2ccc(Br)o2)n1 (centres undefined),0.0681
18,O=C(Cc1ccccc1)NNC(=O)c1cnccn1,-0.0608
19,Fc1cccc2sc(Nc3nc4cc5c(cc4s3)OCCO5)nc12,2.25
20,COc1ccc(CC(=O)NC2=NCCS2)cc1,0.0759
21,CC(C)OP(=O)(c1ccc(N(C)C)cc1)C(O)c1ccccc1 (centres undefined),0.033
22,Cc1nnc(SCC(=O)NC(C)(C)C)n1C1CCCCC1,-0.279
23,Cc1cc(C(=O)NP(=O)(N2CCOCC2)N2CCOCC2)c(C)n1-c1ccc(N(C)C)cc1,-0.344

row,Structure (SMILES),z-score
1,CCOc1cc(NC(=S)NCc2ccco2)c(OCC)cc1NC(=O)CC,-0.0982
2,CCCNS(=O)(=O)c1ccc(CCC(=O)N2CCN(c3ccc(F)cc3)CC2)cc1,-0.715
3,C=CCNc1nc(N2CCCC2)nc2ccccc12,2.37
4,CCOc1cc2[nH]c(=S)n(CCCN(CC)CC)c(=O)c2cc1OCC,-0.475
5,CCc1ccc(C(C)NC(=O)c2cc(C)oc2C)cc1 (centres undefined),-0.386
6,O=S(=O)(Nc1ccc2c(c1)oc1ccccc12)N1CCCC1,-0.363
7,COc1ccc(N=C2SC(CC(=O)Nc3ccccc3OC)C(=O)N2Cc2ccco2)cc1 (centres undefined),-0.0471
8,Cc1cc2oc(=O)cc(CSc3nnc(-c4cccs4)o3)c2cc1C(C)C,-0.189
9,COc1ccccc1N1CCN(CCCCOc2ccc(F)cc2)CC1,-0.111
10,Cc1ccc(Nc2ccc(C(F)(F)F)cc2[N+](=O)[O-])cc1,-0.145
11,CC(C)Cn1c(C(C)NC(=O)Cc2ccccc2)nc2ccccc21 (centres undefined),-1.24
12,COC(=O)NC(=C(Cl)Cl)S(=O)(=O)c1ccccc1,0.181
13,Cc1cc(C)n(/N=C/c2ccccc2)c(=O)c1C#N,-0.422
14,COc1cc2c(cc1OC)C(C(=O)N1CCN(c3ccccn3)CC1)C(c1cccs1)N(C)C2=O (centres undefined),-0.0378
15,Cc1cccc(NC(=O)Nc2nnc(N3CCCCC3C)s2)c1C (centres undefined),-0.194
16,CC(C)(C)NC(=O)CN(Cc1cccs1)C(=O)CNS(=O)(=O)c1ccccc1,-0.153
17,CN(C(=O)c1ccncc1)c1nnc(-c2cnccn2)s1,-0.251
18,CN(Cc1nc(-c2ccccn2)no1)S(=O)(=O)c1ccc(Cl)cc1,0.711
19,COC(=O)C1C(=O)C2=C(CC1C)NC(=O)CC2c1cccc(C)c1 (centres undefined),-0.174
20,O=C(C(Sc1ccccc1)c1ccccc1)N1CCN(c2ccccc2F)CC1 (centres undefined),-0.414
21,Cc1ccc(C(=O)Nc2ccn(Cc3ccc(F)cc3)n2)o1,-0.068
22,Cc1ccc2[nH]c(=O)c(C(c3nnnn3CC3CCCO3)N3CCCc4ccccc43)cc2c1 (centres undefined),0.374
23,CC(NC(=O)c1sc2ccccc2c1Cl)C1CCCO1 (centres undefined),-0.609

row,Structure (SMILES),z-score
1,CC(=O)c1c(C)nc2ccc(Br)cc2c1C(=O)O,-0.291
2,COc1cccc(C(=O)Nc2cc3c(cc2Br)OCCCO3)c1,-0.424
3,Cc1onc(-c2c(F)cccc2Cl)c1C(=O)Nc1cccc(Cn2cccn2)c1,-0.179
4,COc1cc(NC(=O)Nc2ccc(C)cc2)cc([N+](=O)[O-])c1,-0.358
5,Cc1ccc2nc(NC(=O)c3ccc(Cl)s3)sc2c1,-0.0778
6,CN(C)c1ccc(/C=N/NC(=O)C(=O)/C=C2\NC3(CCCC3)Cc3ccccc32)cc1,0.862
7,COc1cccc(C2CC(c3cccc(Br)c3)n3ncnc3N2)c1 (centres undefined),-0.102
8,Cc1ccccc1N/N=C1\CCCNC1=O,0.0319
9,COc1cccc(-c2nnc(SCc3nc4ccccc4s3)n2C)c1,-0.34
10,CC(Sc1n[nH]c(N)n1)c1nc2scc(-c3cccs3)c2c(=O)[nH]1 (centres undefined),-0.0891
11,Cc1ccc[n+](CC(=O)c2ccc(-c3ccccc3)cc2)c1,0.738
12,CCC(=O)Nc1sc2c(c1C(=O)N(C)C)CCCCC2,-0.0268
13,N#Cc1c(C(F)(F)F)cc(-c2ccccc2)nc1SCC(=O)Nc1sc2c(c1C#N)CCC2,-0.109
14,O=C(CN1CCN(Cc2ccccc2)CC1)NC(=O)NCc1ccco1,-0.198
15,c1ccc2[nH]c(NCCN3CCOCC3)nc2c1,-0.105
16,O=C(CSCC(=O)Nc1cccc([N+](=O)[O-])c1)Nc1ccccc1,-0.231
17,O=C(COC(=O)/C=C/c1cnc2ccccc2n1)NCC(F)(F)F,0.343
18,Cc1cccc(NC(=O)C2CCCN2S(=O)(=O)c2cccc3cccnc23)c1 (centres undefined),0.22
19,O=C(NCC1CCCO1)C1CC(=O)N(C2CCCCCC2)C1 (centres undefined),0.13
20,Cn1nnnc1SCc1ccc([N+](=O)[O-])cc1,0.306
21,CCCC(=O)Nc1ccccc1NC(=O)CN(C)S(=O)(=O)c1ccccc1,0.0247
22,Cc1cccc(Nc2nnc(C)c(=O)n2N)c1,-0.46
23,O=C(Nc1cnn(Cc2ccccc2)c1)NC12CC3CC(CC(C3)C1)C2,0.093

row,Structure (SMILES),z-score
1,O=C(Nc1ccc2oc(-c3ccncc3)nc2c1)c1ccccc1F,-0.225
2,CCC(=O)Nc1nnc(-c2ccccn2)o1,-0.0239
3,CCN1C(=O)c2cccc3c(NC(=O)C4CCCCC4)ccc1c23,-0.192
4,COc1cccc(NC(=O)CSc2nnc(COc3ccc4c(c3)CCCC4)o2)c1,0.223
5,O=C(CCc1ccccc1)OCCN1CCOCC1,1.87
6,O=C(C1CCN(c2ccc(N3CCOCC3)nn2)CC1)N1CCc2ccccc2C1,-0.535
7,Cc1ccc(NC(=O)C(OC(=O)c2cc(C)oc2C)c2ccccc2)cc1 (centres undefined),-0.0577
8,CC(C)(C)OC(=O)N1CCC(C(=O)N[C@@H](Cc2ccccc2)C(=O)O)CC1,-0.103
9,COc1ccccc1NC(=S)N(CCCN1CCOCC1)Cc1ccccn1,-0.414
10,COc1cc(CNCc2cccs2)cc(Br)c1OC,-0.147
11,CCc1nc(OCCN(CC)CC)c2oc3ccccc3c2n1,-0.286
12,COC(=O)c1c(N2C(=O)CCC2=O)sc2c1CCCC2,0.268
13,CC(=O)Cn1c(CN2CC(C)CC(C)C2)nc2c1c(=O)n(C)c(=O)n2C (centres undefined),0.0595
14,CCOc1cc(S(=O)(=O)N2CCCCCC2)ccc1F,-0.144
15,CN(C)CCCNC(=S)NCc1ccc(Cl)cc1,-0.54
16,O=C(CSc1ncn(-c2ccccc2)n1)Nc1nc2c(s1)CCCC2,-0.646
17,FC(F)(F)c1cc(-c2ccccc2)nc2ncnn12,0.271
18,O=C(O)c1ccc(Cl)cc1NC(=O)C1CCCO1 (centres undefined),-0.559
19,CCCNC(=O)COC(=O)CCC(=O)c1cccs1,-0.27
20,Cn1c(=N)n(CC(=O)O)c2ccccc21,0.982
21,Cc1cccc(Nc2ccccc2C(=O)OCC(=O)N(C)C2CCS(=O)(=O)C2)c1C (centres undefined),0.039
22,Cc1cccc(Oc2ncnc3oc(-c4ccccc4)cc23)c1C,-0.0842
23,OCCNc1nc(N2CCCC2)nc(N2CCCC2)n1,-0.968

row,Structure (SMILES),z-score
1,O=C(c1cc(-c2ccc(Cl)c(Cl)c2)on1)N1CCN(c2ccccc2)CC1,-0.562
2,Cc1ccc(Cl)c(OCC(=O)OCC(=O)NC2CCCc3ccccc32)c1 (centres undefined),-0.47
3,O=[N+]([O-])c1cccc(Cl)c1NCCNc1ncc(C(F)(F)F)cc1Cl,-0.0828
4,CCOc1ccc(-c2c(C#N)c(N)nc3c2c(=O)n(C)c(=O)n3C)cc1OC,-0.0702
5,COc1ccc2nc(NC(=O)CCN3C(=S)NC(C)(C)CC3C)sc2c1 (centres undefined),-0.122
6,Cc1nn(Cc2ccc([N+](=O)[O-])cc2)c(=O)n1-c1cccc(F)c1,-0.186
7,CCOC(=O)c1sc(=S)n(-c2ccc(Cl)cc2)c1C,-0.721
8,COc1ccc(CCNC(=O)c2cc(-c3ccc4c(c3)OCO4)on2)cc1OC,-0.214
9,CCS(=O)(=O)N1CCCC(C(=O)NC2CCC(C)CC2)C1 (centres undefined),-0.361
10,CCN(CC)CCNC(=O)c1ccccn1,-0.334
11,CCOC(=O)c1c(C)oc2c1c(CN1CCN(C(=O)OCC)CC1)c(O)c1ccccc12,0.242
12,COc1cc(C2C3C(=O)N(Cc4ccccc4)C(=O)C3ON2c2ccccc2)cc(OC)c1O (centres undefined),0.819
13,COc1ccc2c(c1)SCC(=O)N2C,-0.287
14,Cc1ccc(CCNc2ccccc2C)cn1,-0.339
15,Cc1[nH]c2ccccc2c1Cc1n[nH]c(=S)n1C,-0.246
16,Cc1ccc(-c2nc(C)sc2CC(=O)O)cc1,-0.887
17,CCOC(=O)CN1CC23C=CC(O2)C(C(=O)Nc2ccc(OC)cc2OC)C3C1=O (centres undefined),0.0644
18,CC(=O)N1CCN(c2ccc(NC(=O)c3ccc4c(c3)OCO4)cc2)CC1,-0.315
19,COc1cc(NC(=O)c2ccco2)c(OC)cc1NC(=O)CSc1ncc(-c2ccc(F)cc2)[nH]1,-0.182
20,COc1cccc(-c2ccc(=O)n(CC(=O)Nc3ccc(C(=O)N4CCCC4)cc3)n2)c1,0.0557
21,O=C(c1cc(-c2ccccc2)nc2ccccc12)N1CCN(c2ccccn2)CC1,-0.599
22,CC1(C)Cc2c(C#N)c(N3CCN(C(=O)c4ccco4)CC3)nc(-c3ccco3)c2CS1,0.157
